Reference: PubChem BioAssay AID504339 (National Center for Advancing Translational Sciences (NCATS), 2011)
Out of some 390,000 compounds screened, about 17,000 (4.4%) were called active. The shares of active, inactive and inconclusive entries below differ from those in the screen. Calls come from the whole dose curve; as a rule, active = well fitted inhibition curve with a large enough effect; inconclusive = small, poorly fitted or top-dose-only effect; inactive = no such curve, though single readings can be large or run the other way. A potency beside an inconclusive call is a rough fit, not a confirmed value.
Note: nearly all actives have a fitted effect of over 50% in size.
Potency is the fitted concentration of half-maximal effect; tags give direction and shape of the fitted curve.

What follows are molecules tested against Lysine-specific demethylase 4A (Homo sapiens) (UniProt O75164) (assay: qHTS Assay for Inhibitors of JMJD2A-Tudor Domain). Conditions: AlphaScreen JMJD2A-Tudor / H3K4me3 peptide binding; series mostly up to 114 µM.
Sequence of UniProt O75164 (O75164 whole entry, looked up, the tested form may be a part): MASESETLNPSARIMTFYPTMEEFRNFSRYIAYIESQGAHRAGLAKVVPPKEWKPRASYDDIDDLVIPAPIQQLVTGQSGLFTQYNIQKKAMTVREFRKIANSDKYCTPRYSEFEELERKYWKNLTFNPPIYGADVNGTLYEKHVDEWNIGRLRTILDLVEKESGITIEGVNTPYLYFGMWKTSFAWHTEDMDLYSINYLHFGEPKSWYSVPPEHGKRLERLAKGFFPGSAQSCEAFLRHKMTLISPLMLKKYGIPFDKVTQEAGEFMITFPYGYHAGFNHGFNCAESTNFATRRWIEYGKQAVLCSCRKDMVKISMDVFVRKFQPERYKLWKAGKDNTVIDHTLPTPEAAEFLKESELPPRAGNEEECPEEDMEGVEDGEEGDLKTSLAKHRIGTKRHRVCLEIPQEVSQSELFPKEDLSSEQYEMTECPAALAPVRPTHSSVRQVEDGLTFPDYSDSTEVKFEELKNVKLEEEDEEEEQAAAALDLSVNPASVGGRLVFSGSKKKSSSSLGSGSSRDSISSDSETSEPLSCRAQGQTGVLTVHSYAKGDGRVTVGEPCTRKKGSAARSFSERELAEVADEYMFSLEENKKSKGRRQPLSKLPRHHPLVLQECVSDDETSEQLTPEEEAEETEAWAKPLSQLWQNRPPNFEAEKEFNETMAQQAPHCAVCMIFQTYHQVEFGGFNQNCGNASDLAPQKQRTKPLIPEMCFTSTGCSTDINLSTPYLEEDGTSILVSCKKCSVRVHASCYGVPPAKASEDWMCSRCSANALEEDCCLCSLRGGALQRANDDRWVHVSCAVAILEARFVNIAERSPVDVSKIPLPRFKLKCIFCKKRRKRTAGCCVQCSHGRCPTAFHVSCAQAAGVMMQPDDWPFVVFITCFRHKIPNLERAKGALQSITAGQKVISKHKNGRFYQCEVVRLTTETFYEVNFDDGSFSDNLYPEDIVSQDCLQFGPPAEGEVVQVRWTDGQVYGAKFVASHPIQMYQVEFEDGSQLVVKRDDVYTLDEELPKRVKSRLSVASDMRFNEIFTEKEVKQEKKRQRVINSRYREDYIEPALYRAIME
In the case of CCOc1cccc2sc(N(CCN(C)C)C(=O)c3ccc4c(c3)OCCO4)nc12, the Potency is reported as “inactive”. For CSc1ccc(C2NN=C(c3ccccc3)S2)cc1 (stereo not drawn), the Potency was “inactive”. With CCOC(=O)c1c(NC(=O)COC(=O)c2ccncc2)sc(C)c1C the Potency was “inactive”. For Cc1cc(C)nc(NS(=O)(=O)c2ccc(NC(=S)NC(=O)c3cccnc3)cc2)n1, the Potency was “inactive”. CCC(CC)C(=O)Nc1cccc(C(=O)NCc2ccco2)c1 was tested, and the Potency was inconclusive: 56.2 µM [inhibitor, partial curve, poor fit]. For CN1/C(=C/c2cccc[n+]2C)Sc2ccccc21, the Potency was inconclusive: 31.6 µM [inhibitor, partial curve]. O=S(=O)(/N=C(/NS(=O)(=O)c1ccccc1)c1ccccc1)c1ccccc1 was tested, and the Potency was “inactive”. In the case of Cc1cc(C(=O)N2CCN(S(=O)(=O)c3ccccc3C#N)CC2)c(C)o1, the Potency is reported as “inactive”. In the case of O=C(CCN1CCOCC1)N/N=C/c1cc(Br)cc(Br)c1O, the Potency is reported as inconclusive: 89.1 µM [inhibitor, single point]. In the case of O=C(C1CCCN(C2CC(=O)N(c3ccc(Cl)cc3)C2=O)C1)N1CCCC1 (stereo not drawn), the Potency is reported as “inactive”. With O=C(Nc1nc2ccccc2s1)c1cc(-c2ccco2)nc2ccccc12 the Potency was inconclusive: 79.4 µM [inhibitor, partial curve]. COc1ccc(CCNC(=O)C(C)n2nc(C)c3sc4ccccc4c3c2=O)c(OC)c1 (stereo not drawn) was tested, and the Potency was inconclusive: 50.1 µM [inhibitor, partial curve]. In the case of O=C(CCCCCn1c(=O)c2sccc2n(Cc2ccccc2Cl)c1=O)NCc1ccc2c(c1)OCO2, the Potency is reported as “inactive”. O=c1o[nH]c(-c2ccccc2)c1N=Nc1c(F)cccc1Cl was tested, and the Potency was inconclusive: 35.5 µM [inhibitor, partial curve]. For COc1ccc(Cl)cc1NC(=O)c1cnc2sc(N3CCOCC3)nn2c1=O, the Potency was “inactive”. In the case of COC(=O)C(C)N1C(=O)S/C(=C\c2cc(C)n(-c3ccccn3)c2C)C1=O (stereo not drawn), the Potency is reported as inconclusive: 50.1 µM [inhibitor, partial curve]. In the case of Cc1ccc(CNC(=O)c2cnc3c(-c4ccc(F)cc4)c(C)nn3c2C)o1, the Potency is reported as “inactive”. For CC(C)(C)N(Cc1ccccc1)C(=O)c1ccc(Cl)cc1[N+](=O)[O-], the Potency was inconclusive: 89.1 µM [inhibitor, partial curve]. For COc1ccc(/C=C/C(=O)Nc2cc(S(=O)(=O)N3CCCCC3)ccc2N2CCCCC2)cc1OC, the Potency was “inactive”. For COc1cc(-c2[nH]nc3c2C(c2ccco2)C(C#N)=C(N)O3)cc(OC)c1OC (stereo not drawn), the Potency was inconclusive: 100 µM [inhibitor, partial curve, poor fit]. With COc1cc(/C=C2\NC(=S)N(C)C2=O)ccc1O the Potency was “inactive”. CN1Cc2c(N3CCOCC3)nc3sc(C(=O)c4ccccc4)c(N)c3c2CC1(C)C was tested, and the Potency was active: 44.7 µM. Cc1ccc(NC(=O)c2ccc(NCCCN3CCOCC3)c([N+](=O)[O-])c2)cc1Cl was tested, and the Potency was inconclusive: 44.7 µM [inhibitor, single point]. Cc1ccc(CNc2ncnc3ccc(-c4c(C)noc4C)cc23)o1 was tested, and the Potency was inconclusive: 56.2 µM [inhibitor, partial curve]. For CCC(=O)c1ccc(OC(=O)Cc2ccc(OC)cc2)cc1, the Potency was “inactive”. COc1ccc(OC)c(NC2c3ncccc3C(=O)N2Cc2ccco2)c1 (stereo not drawn) was tested, and the Potency was “inactive”. For CC(=Nc1ccc(C)cc1C)c1sc2ccccc2c1O, the Potency was active: 56.2 µM. O=C(CCS(=O)(=O)c1ccccc1)N(CCCN1CCOCC1)c1nc2c(F)cccc2s1 was tested, and the Potency was “inactive”. In the case of Cc1ccc2cccc(OCC(=O)Nc3ccc4c(c3)OCO4)c2n1, the Potency is reported as “inactive”. For CSc1ccc(CCNC(=O)CCCn2c(=O)c3cccn3c3ccccc32)cc1, the Potency was inconclusive: 20 µM [inhibitor, full curve]. COc1ccccc1N1CCN(C/C(O)=C(\C#N)c2nc(-c3ccccc3)cs2)CC1 was tested, and the Potency was inconclusive: 28.2 µM [inhibitor, partial curve]. In the case of Cc1cc2c(cc(C(=O)N3CCC(C(=O)N4CCCC4)CC3)n2Cc2c(F)cccc2Cl)o1, the Potency is reported as active: 56.2 µM. In the case of O=C(O)CSc1ncnc2sc(-c3ccccc3)cc12, the Potency is reported as “inactive”. With CC(C)Cc1nnc(NC(=O)CN2C(=O)NC3(CCCC3)C2=O)s1 the Potency was “inactive”. In the case of COc1ccc(Br)cc1CNC(=O)CN1C(=O)c2cccnc2Oc2ccc(C)cc21, the Potency is reported as inconclusive: 56.2 µM [inhibitor, partial curve]. CC(=O)NC1=C(C#N)C(c2ccccc2)c2c(ccc3ccccc23)O1 (stereo not drawn) was tested, and the Potency was inconclusive: 79.4 µM [inhibitor, partial curve]. With Cc1ccc(NCC(=O)N/N=C/c2cc(O)ccc2[N+](=O)[O-])cc1 the Potency was “inactive”. With N#C/C(=N\Nc1ccc(S(=O)(=O)N2CCCCCC2)cc1)C(N)=S the Potency was inconclusive: 15.8 µM [inhibitor, full curve]. For COc1ccccc1C(=O)Nc1nnc(S(=O)(=O)N2CCC(C)CC2)s1, the Potency was “inactive”. For COc1ccc(CNC(=O)COC(=O)Cc2ccc(Br)cc2)cc1, the Potency was “inactive”. For Cc1cc(N2CCN(S(=O)(=O)c3ccc(C)c(C)c3)CC2)c2ccccc2n1, the Potency was inconclusive: 35.5 µM [inhibitor, partial curve]. With O=C(c1cn(-c2ccccc2)nc1-c1cccs1)N1CCN(c2ccc(F)cc2)CC1 the Potency was inconclusive: 56.2 µM [inhibitor, partial curve]. With O=C(CN1CCOc2ccccc21)N1CCN(c2cccc(Cl)c2)CC1 the Potency was inconclusive: 56.2 µM [inhibitor, partial curve]. With Cc1ccc2nc(-c3ccc(NC(=O)COc4ccc(Br)cc4Br)cc3)sc2c1 the Potency was “inactive”. In the case of COC(=O)c1ccc(/C=C/C(=O)c2ccc(OC)c(OC)c2)cc1, the Potency is reported as “inactive”. With COc1ccc(CN2C(=O)C(CC(C)C)Nc3ncnc(N4CCCCC4)c32)cc1 (stereo not drawn) the Potency was inconclusive: 25.1 µM [inhibitor, partial curve]. With CN1CCC(=NOc2ccc([N+](=O)[O-])cc2)CC1 the Potency was “inactive”. With COC1=C(Nc2ccccc2)C(=O)c2ccccc2C1=O the Potency was active: 14.1 µM. Cc1cc(C)cc(NC(=O)CSc2ccc(-c3cccs3)nn2)c1 was tested, and the Potency was “inactive”. In the case of CCN(C(=O)c1cc2c(=O)[nH]c3ccc(C)cc3c2s1)c1ccccc1F, the Potency is reported as inconclusive: 11.2 µM [inhibitor, full curve]. CCOC(=O)c1ccc2ncc(C(=O)OCC)c(Nc3ccc(N4CCOCC4)cc3)c2c1 was tested, and the Potency was active: 39.8 µM. Cc1nnc(SCC(=O)N2N=C(c3ccc(Cl)cc3)CC2c2ccco2)[nH]c1=O (stereo not drawn) was tested, and the Potency was inconclusive: 22.4 µM [inhibitor, single point]. For CSc1ccc(S(=O)(=O)Nc2ccc(S(=O)(=O)Nc3ccc(C)cc3)cc2)cc1, the Potency was inconclusive: 63.1 µM [inhibitor, partial curve, poor fit]. CCOC(=O)C1=C(c2ccccc2)NC(=O)NC1c1ccc(N(C)C)cc1 (stereo not drawn) was tested, and the Potency was inconclusive: 79.4 µM [inhibitor, partial curve]. For COc1ccc(C(CNC(=O)c2oc3cc(C)c(C)cc3c2C)N2CCCCC2)cc1 (stereo not drawn), the Potency was inconclusive: 70.8 µM [inhibitor, single point]. For CC(C)Nc1nc(Cl)nc(N(C#N)CN2C(=O)c3ccccc3C2=O)n1, the Potency was inconclusive: 89.1 µM [inhibitor, single point]. For Cc1ccc2sc(N(CCCN(C)C)C(=O)c3ccc(Br)s3)nc2c1C, the Potency was inconclusive: 44.7 µM [inhibitor, partial curve]. In the case of Cc1ccc(Nc2nc(N)nc(CSc3nc4ccccc4s3)n2)cc1, the Potency is reported as inconclusive: 56.2 µM [inhibitor, partial curve]. In the case of Cc1ccc(C(=O)N/N=C\c2ccc[nH]2)cc1[N+](=O)[O-], the Potency is reported as “inactive”. O=C(c1ccco1)N1CCn2cccc2C1c1ccccc1 (stereo not drawn) was tested, and the Potency was active: 50.1 µM. In the case of CN(CC(=O)Nc1ccccc1Cl)C(=O)c1ccc(N2CCCCCC2)c([N+](=O)[O-])c1, the Potency is reported as inconclusive: 39.8 µM [inhibitor, partial curve]. O=[N+]([O-])c1ccc(OCCCCN2CCCCC2)cc1 was tested, and the Potency was “inactive”. For Cc1oc(C(C)(C)C)cc1C(=O)NCC(=O)NCC(=O)O, the Potency was inconclusive: 89.1 µM [inhibitor, single point]. C=CC[C@@H](CC(=O)N(CCO)Cc1ccccc1)C(=O)N[C@H](COC(=O)[C@@H](CC=C)Cc1ccc(F)cc1)Cc1c[nH]c2ccccc12 was tested, and the Potency was inconclusive: 44.7 µM [inhibitor, partial curve]. With CC1(OC(=O)CCc2ccccc2)C(=O)C=C2C=C(c3ccc(C#N)cc3)N(c3ccccc3)C=C2C1=O (stereo not drawn) the Potency was inconclusive: 44.7 µM [inhibitor, partial curve]. C=CCn1c(-c2cc(Cl)ccc2OC)n[nH]c1=S was tested, and the Potency was active: 7.94 µM. With CCC(=O)N(Cc1cc(=O)[nH]c2ccccc12)c1ccccc1 the Potency was inconclusive: 8.91 µM [inhibitor, full curve, poor fit]. With Cc1ccc(-c2cc(-c3ccccc3)c(C#N)c(N)n2)o1 the Potency was inconclusive: 35.5 µM [inhibitor, single point]. In the case of O=[N+]([O-])c1ccccc1NCCNS(=O)(=O)c1ccc(Cl)cc1, the Potency is reported as inconclusive: 50.1 µM [inhibitor, partial curve]. For COc1ccc(OCC(O)Cn2c(=N)n(CCN3CCCCC3)c3ccccc32)cc1 (stereo not drawn), the Potency was inconclusive: 3.16 µM [inhibitor, single point]. O=[N+]([O-])c1c(Nc2ccccn2)cc(Cl)c2nonc12 was tested, and the Potency was inconclusive: 0.708 µM [inhibitor, full curve, poor fit]. For COc1ccc(NC(=O)CN(C)C2CCS(=O)(=O)C2)cc1 (stereo not drawn), the Potency was “inactive”. O=C(NCC1CCCO1)c1ccc(Cn2c(=S)[nH]c3ccccc3c2=O)cc1 (stereo not drawn) was tested, and the Potency was inconclusive: 28.2 µM [inhibitor, partial curve].
